T1: high-affinity hIL-2 receptor (IL-2Rαβγ) on NK-92 cells (human, UniProt P01589 22-272; P14784 27-551; P31785 23-369)
T1 sequence 1: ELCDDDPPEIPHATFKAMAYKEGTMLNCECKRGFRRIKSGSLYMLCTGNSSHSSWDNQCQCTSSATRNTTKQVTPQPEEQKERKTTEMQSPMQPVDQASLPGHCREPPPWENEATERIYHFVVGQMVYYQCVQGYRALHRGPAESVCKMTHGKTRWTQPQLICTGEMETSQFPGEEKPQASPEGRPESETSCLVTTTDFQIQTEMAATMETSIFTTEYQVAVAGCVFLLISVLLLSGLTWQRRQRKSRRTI
T1 sequence 2: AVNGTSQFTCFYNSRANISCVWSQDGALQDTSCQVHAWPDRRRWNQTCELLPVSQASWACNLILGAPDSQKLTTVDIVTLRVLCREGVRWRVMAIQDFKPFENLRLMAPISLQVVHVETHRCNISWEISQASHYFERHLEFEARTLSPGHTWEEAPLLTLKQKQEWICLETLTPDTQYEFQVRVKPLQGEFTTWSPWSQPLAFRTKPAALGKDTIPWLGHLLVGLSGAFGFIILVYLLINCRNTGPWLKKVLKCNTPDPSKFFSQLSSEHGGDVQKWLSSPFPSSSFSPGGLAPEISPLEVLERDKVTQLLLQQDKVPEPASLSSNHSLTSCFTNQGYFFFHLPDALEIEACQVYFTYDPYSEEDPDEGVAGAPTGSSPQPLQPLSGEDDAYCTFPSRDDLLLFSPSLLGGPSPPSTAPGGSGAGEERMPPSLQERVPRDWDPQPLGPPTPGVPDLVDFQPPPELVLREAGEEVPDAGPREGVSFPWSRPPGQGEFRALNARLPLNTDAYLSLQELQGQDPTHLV
T1 sequence 3: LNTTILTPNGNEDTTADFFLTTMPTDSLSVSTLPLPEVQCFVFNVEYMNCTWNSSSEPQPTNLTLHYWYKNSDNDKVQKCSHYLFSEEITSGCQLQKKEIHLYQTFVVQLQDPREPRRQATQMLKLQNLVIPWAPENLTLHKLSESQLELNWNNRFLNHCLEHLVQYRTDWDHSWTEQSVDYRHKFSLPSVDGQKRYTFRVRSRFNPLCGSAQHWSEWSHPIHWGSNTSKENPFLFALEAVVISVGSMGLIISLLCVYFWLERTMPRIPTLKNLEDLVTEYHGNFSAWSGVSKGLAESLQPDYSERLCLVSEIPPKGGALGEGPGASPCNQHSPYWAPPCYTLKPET

T2: intermediate-affinity hIL-2 receptor complex (IL-2Rβγ) on TF1+IL-2Rβ cells (human, UniProt P14784 27-551; P31785 23-369)
T2 sequence 1: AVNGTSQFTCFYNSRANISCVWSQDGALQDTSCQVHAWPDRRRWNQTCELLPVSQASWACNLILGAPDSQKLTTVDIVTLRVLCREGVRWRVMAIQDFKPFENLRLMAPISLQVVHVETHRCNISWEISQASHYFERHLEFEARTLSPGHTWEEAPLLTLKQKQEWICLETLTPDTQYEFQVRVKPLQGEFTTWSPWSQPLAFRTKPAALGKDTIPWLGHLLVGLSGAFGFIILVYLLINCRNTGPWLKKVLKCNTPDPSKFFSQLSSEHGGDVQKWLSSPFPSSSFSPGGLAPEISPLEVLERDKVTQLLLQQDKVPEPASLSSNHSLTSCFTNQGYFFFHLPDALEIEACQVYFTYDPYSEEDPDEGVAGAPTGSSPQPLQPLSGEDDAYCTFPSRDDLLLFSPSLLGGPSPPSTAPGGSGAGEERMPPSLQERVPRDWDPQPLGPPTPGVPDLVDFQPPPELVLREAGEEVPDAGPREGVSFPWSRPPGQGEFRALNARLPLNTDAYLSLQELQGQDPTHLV
T2 sequence 2: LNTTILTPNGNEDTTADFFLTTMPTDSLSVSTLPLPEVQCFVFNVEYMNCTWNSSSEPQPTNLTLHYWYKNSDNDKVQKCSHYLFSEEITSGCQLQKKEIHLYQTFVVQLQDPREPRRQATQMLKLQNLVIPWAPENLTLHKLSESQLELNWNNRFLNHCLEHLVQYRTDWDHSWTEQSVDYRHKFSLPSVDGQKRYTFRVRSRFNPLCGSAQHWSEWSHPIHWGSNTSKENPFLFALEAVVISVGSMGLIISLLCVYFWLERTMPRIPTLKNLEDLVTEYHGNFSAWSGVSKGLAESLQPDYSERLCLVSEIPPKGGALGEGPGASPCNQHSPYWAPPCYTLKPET


How the values were obtained:
[1] = target: T1, high-affinity hIL-2 receptor (IL-2Rαβγ) …; experiment: cell-based or functional assay
[2] = target: T2, intermediate-affinity hIL-2 receptor …; experiment: cell-based or functional assay

| Fold change from rhIL-2 (NK-92) [1] | Fold change from rhIL-2 (TF1 + IL-2Rβ) [2] | Binder |
| --- | --- | --- |
| 1050 fold | ~314 fold | hCD25-L20-hIL-2 Nterm heavy chain df (other) heavy: ELCDDDPPEIPHATFKAMAYKEGTMLNCECKRGFRRIKSGSLYMLCTGNSSHSSWDNQCQCTSSATRNTTKQVTPQPEEQKERKTTEMQSPMQPVDQASLPGHCREPPPWENEATERIYHFVVGQMVYYQCVQGYRALHRGPAESVCKMTHGKTRWTQPQLICTSGGGGSGGGGSGGGGSGGGS[not shown - about 150 residues]EVQLVESGGGLVQPGRSLKLSCAVSGFTFSDYAMAWVRQAPKKGLEWVATISYDGSRTYYRDSVKGRFTISRDNAKITLYLQMDSLRSEDTATYYCARHGSGYFDYWGQGVMVTVSS[not shown - human IgG1 constant region] light: DTVLTQSPALAVSPGERVTISCRASESVRTGVHWYQQKPGQQPKLLIYGASNLESGVPARFSGSGSGTDFTLTIDPVEADDTATYFCQQSWNDPFTFGSGTKLEIKRTVAAPSVFIFPPSDEQLKSGTASVVCLLNNFYPREAKVQWKVDNALQSGNSQESVTEQDSKDSTYSLSSTLTLSKADYEKHKVYACEVTHQGLSSPVTKSFNRGEC |
| – | 0 fold | hIL-2 Nterm heavy chain L6 fusion (other) heavy: [not shown - about 150 residues]SGGGGSEVQLVESGGGLVQPGRSLKLSCAVSGFTFSDYAMAWVRQAPKKGLEWVATISYDGSRTYYRDSVKGRFTISRDNAKITLYLQMDSLRSEDTATYYCARHGSGYFDYWGQGVMVTVSS[not shown - human IgG1 constant region] light: DTVLTQSPALAVSPGERVTISCRASESVRTGVHWYQQKPGQQPKLLIYGASNLESGVPARFSGSGSGTDFTLTIDPVEADDTATYFCQQSWNDPFTFGSGTKLEIKRTVAAPSVFIFPPSDEQLKSGTASVVCLLNNFYPREAKVQWKVDNALQSGNSQESVTEQDSKDSTYSLSSTLTLSKADYEKHKVYACEVTHQGLSSPVTKSFNRGEC |
| – | 2 fold | hIL-2 Nterm heavy chain df (other) heavy: [not shown - about 150 residues]EVQLVESGGGLVQPGRSLKLSCAVSGFTFSDYAMAWVRQAPKKGLEWVATISYDGSRTYYRDSVKGRFTISRDNAKITLYLQMDSLRSEDTATYYCARHGSGYFDYWGQGVMVTVSS[not shown - human IgG1 constant region] light: DTVLTQSPALAVSPGERVTISCRASESVRTGVHWYQQKPGQQPKLLIYGASNLESGVPARFSGSGSGTDFTLTIDPVEADDTATYFCQQSWNDPFTFGSGTKLEIKRTVAAPSVFIFPPSDEQLKSGTASVVCLLNNFYPREAKVQWKVDNALQSGNSQESVTEQDSKDSTYSLSSTLTLSKADYEKHKVYACEVTHQGLSSPVTKSFNRGEC |
| 318 fold | 18 fold | hCD25-L20-hIL-2 Nterm heavy chain L6 fusion (other) heavy: ELCDDDPPEIPHATFKAMAYKEGTMLNCECKRGFRRIKSGSLYMLCTGNSSHSSWDNQCQCTSSATRNTTKQVTPQPEEQKERKTTEMQSPMQPVDQASLPGHCREPPPWENEATERIYHFVVGQMVYYQCVQGYRALHRGPAESVCKMTHGKTRWTQPQLICTSGGGGSGGGGSGGGGSGGGS[not shown - about 150 residues]SGGGGSEVQLVESGGGLVQPGRSLKLSCAVSGFTFSDYAMAWVRQAPKKGLEWVATISYDGSRTYYRDSVKGRFTISRDNAKITLYLQMDSLRSEDTATYYCARHGSGYFDYWGQGVMVTVSS[not shown - human IgG1 constant region] light: DTVLTQSPALAVSPGERVTISCRASESVRTGVHWYQQKPGQQPKLLIYGASNLESGVPARFSGSGSGTDFTLTIDPVEADDTATYFCQQSWNDPFTFGSGTKLEIKRTVAAPSVFIFPPSDEQLKSGTASVVCLLNNFYPREAKVQWKVDNALQSGNSQESVTEQDSKDSTYSLSSTLTLSKADYEKHKVYACEVTHQGLSSPVTKSFNRGEC |
| ~1 fold | 1 fold | hIL-2 Nterm light chain df (other) heavy: EVQLVESGGGLVQPGRSLKLSCAVSGFTFSDYAMAWVRQAPKKGLEWVATISYDGSRTYYRDSVKGRFTISRDNAKITLYLQMDSLRSEDTATYYCARHGSGYFDYWGQGVMVTVSS[not shown - human IgG1 constant region] light: [not shown - about 150 residues]DTVLTQSPALAVSPGERVTISCRASESVRTGVHWYQQKPGQQPKLLIYGASNLESGVPARFSGSGSGTDFTLTIDPVEADDTATYFCQQSWNDPFTFGSGTKLEIKRTVAAPSVFIFPPSDEQLKSGTASVVCLLNNFYPREAKVQWKVDNALQSGNSQESVTEQDSKDSTYSLSSTLTLSKADYEKHKVYACEVTHQGLSSPVTKSFNRGEC |
| 15100 fold | ~542 fold | hCD25-L20-hIL-2 Nterm light chain df (other) heavy: EVQLVESGGGLVQPGRSLKLSCAVSGFTFSDYAMAWVRQAPKKGLEWVATISYDGSRTYYRDSVKGRFTISRDNAKITLYLQMDSLRSEDTATYYCARHGSGYFDYWGQGVMVTVSS[not shown - human IgG1 constant region] light: ELCDDDPPEIPHATFKAMAYKEGTMLNCECKRGFRRIKSGSLYMLCTGNSSHSSWDNQCQCTSSATRNTTKQVTPQPEEQKERKTTEMQSPMQPVDQASLPGHCREPPPWENEATERIYHFVVGQMVYYQCVQGYRALHRGPAESVCKMTHGKTRWTQPQLICTSGGGGSGGGGSGGGGSGGGS[not shown - about 150 residues]DTVLTQSPALAVSPGERVTISCRASESVRTGVHWYQQKPGQQPKLLIYGASNLESGVPARFSGSGSGTDFTLTIDPVEADDTATYFCQQSWNDPFTFGSGTKLEIKRTVAAPSVFIFPPSDEQLKSGTASVVCLLNNFYPREAKVQWKVDNALQSGNSQESVTEQDSKDSTYSLSSTLTLSKADYEKHKVYACEVTHQGLSSPVTKSFNRGEC |
| ~0 fold | 0 fold | hIL-2 Cterm light chain L6 fusion (other) heavy: EVQLVESGGGLVQPGRSLKLSCAVSGFTFSDYAMAWVRQAPKKGLEWVATISYDGSRTYYRDSVKGRFTISRDNAKITLYLQMDSLRSEDTATYYCARHGSGYFDYWGQGVMVTVSS[not shown - human IgG1 constant region] light: DTVLTQSPALAVSPGERVTISCRASESVRTGVHWYQQKPGQQPKLLIYGASNLESGVPARFSGSGSGTDFTLTIDPVEADDTATYFCQQSWNDPFTFGSGTKLEIKRTVAAPSVFIFPPSDEQLKSGTASVVCLLNNFYPREAKVQWKVDNALQSGNSQESVTEQDSKDSTYSLSSTLTLSKADYEKHKVYACEVTHQGLSSPVTKSFNRGECSGGGGS[not shown - about 150 residues] |
| – | 1 fold | hIL-2 Cterm light chain df (other) heavy: EVQLVESGGGLVQPGRSLKLSCAVSGFTFSDYAMAWVRQAPKKGLEWVATISYDGSRTYYRDSVKGRFTISRDNAKITLYLQMDSLRSEDTATYYCARHGSGYFDYWGQGVMVTVSS[not shown - human IgG1 constant region] light: DTVLTQSPALAVSPGERVTISCRASESVRTGVHWYQQKPGQQPKLLIYGASNLESGVPARFSGSGSGTDFTLTIDPVEADDTATYFCQQSWNDPFTFGSGTKLEIKRTVAAPSVFIFPPSDEQLKSGTASVVCLLNNFYPREAKVQWKVDNALQSGNSQESVTEQDSKDSTYSLSSTLTLSKADYEKHKVYACEVTHQGLSSPVTKSFNRGEC[not shown - about 150 residues] |
| ~0 fold | 0 fold | hIL-2 Nterm light chain L6 fusion (other) heavy: EVQLVESGGGLVQPGRSLKLSCAVSGFTFSDYAMAWVRQAPKKGLEWVATISYDGSRTYYRDSVKGRFTISRDNAKITLYLQMDSLRSEDTATYYCARHGSGYFDYWGQGVMVTVSS[not shown - human IgG1 constant region] light: [not shown - about 150 residues]SGGGGSDTVLTQSPALAVSPGERVTISCRASESVRTGVHWYQQKPGQQPKLLIYGASNLESGVPARFSGSGSGTDFTLTIDPVEADDTATYFCQQSWNDPFTFGSGTKLEIKRTVAAPSVFIFPPSDEQLKSGTASVVCLLNNFYPREAKVQWKVDNALQSGNSQESVTEQDSKDSTYSLSSTLTLSKADYEKHKVYACEVTHQGLSSPVTKSFNRGEC |
